# Experimental data reported in US11590092B2, “Skin probiotic” (The Regents of the University of California, priority 2014, dated 2023).
# For part of its entries the source gives two or more results. They are shown here; other results are not. The source may hold further records. Values given together read as repeated measurements on other runs, samples or individuals. Marks in square brackets tell the records apart. Letters count within one entry.
# Test system: USA300
# Assay: In vivo skin wound infection with USA300
# Design: species or system ICR mice
# Conditions: topical 100 mM propionic acid
# Method: ICR mice (2-3-month-old female) were anesthetized by isoflurane. In each experiment, there were five mice per group. A wound 5 mm in length was made on the dorsal skin after shaving with electrical clippers. Once the skin wound was created, 5 μl of propionic acid (100 mM), PBS (pH 7.1) or PBS (pH 3.5) was applied topically to the wounded areas. The wounds were left uncovered throughout the experimental period. For bacterial infection, USA300 (2×10^6 CFU in PBS) was applied topically to the wounded areas 10 min after application of propionic acid or PBS. For the measurement of the extent of wound closure, a transparent parafilm was put on the top of the wounded skin. The wound area was marked on the parafilm by drawing an area which covered the whole skin wound. The lesion size was measured daily for 8 days was calculated using the ImageJ software [National Institutes of Health (NIH), Bethesda, Md., USA] and expressed as mm^2. Student's t-test was used to determine the significance of the differences between groups of the PBS (pH 7.1)- and propionic acid-treated mice as well as the PBS (pH 7.1)- and PBS (pH 3.5)-treated mice. […]
# ICR mice (2-3 month-old females; Harlan Labs, Placentia, Calif., USA) were anesthetized by isoflurane. […] The lesion size (mm^2) was measured daily for 8 days then calculated with ImageJ software (NIH, Bethesda, Md., USA). […]
smiles,measurement,value
CCC(=O)O [propionic acid],size of USA300-infected skin lesions on Day 1,3.2±0.8 mM [passage A] and 3.2±0.8 mm^2 [passage B]
